Target: T1, McbB (Escherichia coli, UniProt P23184 1-295)
T1 sequence: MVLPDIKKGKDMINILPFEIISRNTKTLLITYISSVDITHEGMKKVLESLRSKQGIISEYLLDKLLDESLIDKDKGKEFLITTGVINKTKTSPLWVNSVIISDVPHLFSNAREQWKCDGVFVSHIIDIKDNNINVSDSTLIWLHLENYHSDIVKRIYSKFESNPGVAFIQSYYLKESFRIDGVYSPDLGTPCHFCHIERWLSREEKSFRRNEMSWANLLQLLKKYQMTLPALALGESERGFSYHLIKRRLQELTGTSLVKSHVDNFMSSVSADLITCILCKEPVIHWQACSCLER
Test: crystal structure

binding result: binds
B1: McbC (enzyme, Escherichia coli)
chain: MSKHELSLVEVTHYTDPEVLAIVKDFHVRGNFASLPEFAERTFVSAVPLAHLEKFENKEVLFRPGFSSVINISSSHNFSRERLPSGINFCDKNKLSIRTIEKLLVNAFSSPDPGSVRRPYPSGGALYPIEVFLCRLSENTENWQAGTNVYHYLPLSQALEPVATCNTQSLYRSLSGGDSERLGKPHFALVYCIIFEKALFKYRYRGYRMALMETGSMYQNAVLVADQIGLKNRVWAGYTDSYVAKTMNLDQRTVAPLIVQFFGDVNDDKCLQ
